The text below walks through data of patent US20250387474A1 (MEDICENNA THERAPEUTICS, published 2025).

The target of assay [1] is T1, mouse PD-1 on Mouse PD-1 T&U Effector Cells (mouse, UniProt Q02242 25-288).
T1 sequence (looked up): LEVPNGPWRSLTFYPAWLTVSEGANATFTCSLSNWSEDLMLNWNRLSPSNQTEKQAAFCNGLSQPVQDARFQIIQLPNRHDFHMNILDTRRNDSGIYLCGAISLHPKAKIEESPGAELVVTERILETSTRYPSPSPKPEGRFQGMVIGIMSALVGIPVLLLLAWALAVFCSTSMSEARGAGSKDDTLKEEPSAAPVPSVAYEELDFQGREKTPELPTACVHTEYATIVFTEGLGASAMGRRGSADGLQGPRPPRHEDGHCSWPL
Put plainly: cell-based or functional assay.

Another assay addresses T2, mouse PD-1 (mouse, UniProt Q02242 25-167).
T2 construct: also called mPD1
T2 sequence (looked up): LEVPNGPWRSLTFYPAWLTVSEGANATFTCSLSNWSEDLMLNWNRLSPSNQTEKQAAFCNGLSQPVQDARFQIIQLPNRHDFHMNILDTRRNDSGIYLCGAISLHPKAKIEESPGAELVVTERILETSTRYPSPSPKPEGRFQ
Put plainly: SPR, construct on chip, mouse PD1 as analyte. A general note: SPR reads the build-up and loss of mass on a sensor chip optically.

A further assay addresses T3, human IL-13Rα2 (human, UniProt Q14627 27-343).
T3 construct: also called Human IL-13 R alpha 2 Protein; IL-13 decoy receptor
T3 sequence (looked up): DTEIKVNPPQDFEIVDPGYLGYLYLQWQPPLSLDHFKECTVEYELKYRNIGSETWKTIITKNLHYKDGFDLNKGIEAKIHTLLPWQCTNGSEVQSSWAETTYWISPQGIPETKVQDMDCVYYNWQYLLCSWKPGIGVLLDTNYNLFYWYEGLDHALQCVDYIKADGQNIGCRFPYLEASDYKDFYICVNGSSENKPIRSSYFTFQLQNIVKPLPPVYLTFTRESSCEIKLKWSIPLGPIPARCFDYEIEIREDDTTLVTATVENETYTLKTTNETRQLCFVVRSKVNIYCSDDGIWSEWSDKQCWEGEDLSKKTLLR
Put plainly: SPR, construct on chip, receptor as analyte.

Assay [2] addresses T4, IL-2Rβγ on Jurkat IL2Rβγ bioassay cells (UniProt P14784 27-551; P31785 23-369, limits assumed).
T4 sequence (looked up) 1: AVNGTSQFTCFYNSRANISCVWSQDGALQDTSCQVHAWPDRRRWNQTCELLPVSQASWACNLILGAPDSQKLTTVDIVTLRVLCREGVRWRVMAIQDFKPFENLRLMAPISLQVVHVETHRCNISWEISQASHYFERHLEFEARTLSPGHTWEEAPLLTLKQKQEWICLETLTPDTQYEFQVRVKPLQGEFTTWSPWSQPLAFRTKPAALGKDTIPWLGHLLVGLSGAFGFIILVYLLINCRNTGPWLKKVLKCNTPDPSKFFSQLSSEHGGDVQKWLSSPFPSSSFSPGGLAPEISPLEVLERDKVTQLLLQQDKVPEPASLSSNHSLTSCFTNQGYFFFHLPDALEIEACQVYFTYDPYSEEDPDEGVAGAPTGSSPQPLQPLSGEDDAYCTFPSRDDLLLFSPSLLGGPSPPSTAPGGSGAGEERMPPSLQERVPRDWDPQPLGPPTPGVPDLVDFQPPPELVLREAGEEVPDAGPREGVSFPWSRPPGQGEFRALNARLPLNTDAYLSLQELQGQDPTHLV
T4 sequence (looked up) 2: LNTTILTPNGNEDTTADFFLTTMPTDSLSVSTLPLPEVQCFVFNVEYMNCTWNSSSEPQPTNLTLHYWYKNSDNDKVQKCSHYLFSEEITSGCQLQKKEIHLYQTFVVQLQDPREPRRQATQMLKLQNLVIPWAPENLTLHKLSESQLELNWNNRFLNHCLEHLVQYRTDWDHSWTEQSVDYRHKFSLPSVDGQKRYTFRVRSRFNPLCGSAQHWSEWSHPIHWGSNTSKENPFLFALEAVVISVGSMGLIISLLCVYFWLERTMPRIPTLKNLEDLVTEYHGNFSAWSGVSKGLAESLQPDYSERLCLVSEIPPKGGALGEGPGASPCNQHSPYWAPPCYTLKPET
The experiment in a line: cell-based or functional assay.

A further assay deals with T5, human IL-2R beta (CD122) (human, UniProt P14784 27-239).
T5 construct: also called IL-2Rβ; IL2Rβ
T5 sequence (looked up): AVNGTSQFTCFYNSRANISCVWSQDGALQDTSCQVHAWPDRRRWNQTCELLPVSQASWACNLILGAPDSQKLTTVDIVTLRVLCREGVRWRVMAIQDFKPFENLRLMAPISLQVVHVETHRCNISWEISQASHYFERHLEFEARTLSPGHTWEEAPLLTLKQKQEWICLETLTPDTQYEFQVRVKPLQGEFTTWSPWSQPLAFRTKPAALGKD
Put plainly: SPR, construct on chip, receptor as analyte.

The next assay has as its target T6, human IL-2R alpha (CD25) (human, UniProt P01589 22-213).
T6 construct: also called IL-2Rα; IL2Rα
T6 sequence (looked up): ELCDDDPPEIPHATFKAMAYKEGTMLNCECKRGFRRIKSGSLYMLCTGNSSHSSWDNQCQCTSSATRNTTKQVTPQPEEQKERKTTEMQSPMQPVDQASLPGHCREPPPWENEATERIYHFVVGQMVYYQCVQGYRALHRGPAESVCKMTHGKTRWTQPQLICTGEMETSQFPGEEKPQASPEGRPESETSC
The experiment in a line: SPR, concentration series 6.2 to 800 nM, set-up of Figure 89.

The next assay has as its target T7, CD25 on CTLL-2 cells (mouse, UniProt P01590 22-268).
T7 sequence (looked up): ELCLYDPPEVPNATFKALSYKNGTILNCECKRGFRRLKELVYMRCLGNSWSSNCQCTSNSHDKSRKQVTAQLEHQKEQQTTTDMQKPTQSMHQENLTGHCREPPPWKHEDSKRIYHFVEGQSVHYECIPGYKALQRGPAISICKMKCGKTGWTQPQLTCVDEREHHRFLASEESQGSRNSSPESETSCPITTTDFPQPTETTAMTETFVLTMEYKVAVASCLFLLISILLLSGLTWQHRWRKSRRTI
The experiment in a line: cell-based or functional assay.

The next assay has as its target T8, human IL-13Rα1 (human, UniProt P78552 22-343).
T8 construct: also called Human IL-13 R alpha 1 Protein; IL-13 functional receptor
T8 sequence (looked up): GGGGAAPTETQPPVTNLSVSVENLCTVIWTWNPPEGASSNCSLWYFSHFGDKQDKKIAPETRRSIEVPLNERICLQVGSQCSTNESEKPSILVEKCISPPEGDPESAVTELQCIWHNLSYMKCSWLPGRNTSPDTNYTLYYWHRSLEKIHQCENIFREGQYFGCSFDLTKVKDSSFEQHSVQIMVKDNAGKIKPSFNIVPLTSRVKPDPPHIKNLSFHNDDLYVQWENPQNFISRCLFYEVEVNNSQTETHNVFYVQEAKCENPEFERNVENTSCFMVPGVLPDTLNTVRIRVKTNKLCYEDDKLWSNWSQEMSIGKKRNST
The experiment in a line: SPR (multi-cycle kinetics), construct captured by anti-human IgG (Fc), receptor as analyte.

B1: mAnti-PD1-MDNA132.15 (1:1 KIH) (other)
heavy 1: EVQLQESGPGLVKPSQSLSLTCSVTGYSITSSYRWNWIRKFPGNRLEWMGYINSAGISNYNPSLKRRISITRDTSKNQFFLQVNSVTTEDAATYYCARSDNMGTTPFTYWGQGTLVTVSSASTKGPSVFPLAPSSKSTSGGTAALGCLVKDYFPEPVTVSWNSGALTSGVHTFPAVLQSSGLYSLSSVVTVPSSSLGTQTYICNVNHKPSNTKVDKKVEPKSCDKTHTCPPCPAPELLGGPSVFLFPPKPKDTLMISRTPEVTCVVVDVSHEDPEVKFNWYVDGVEVHNAKTKPREEQYASTYRVVSVLTVLHQDWLNGKEYKCKVSNKALPAPIEKTISKAKGQPREPQVYTLPPCRDELTKNQVSLWCLVKGFYPSDIAVEWESNGQPENNYKTTPPVLDSDGSFFLYSKLTVDKSRWQQGNVFSCSVMHEALHNHYTQKSLSLSPGGGGGSGGGGSGGGGSPGPVPPSTAHRELIRELVNITQNQKAPLCNGSMVWSINLTAGMYCAALESLINVSGCSAIEKTQRMLSGFCPHKVSAGQFSSLHVTGRKIEVAQFVKDLLLHLKKLFKEGQFN
heavy 2: EVQLQESGPGLVKPSQSLSLTCSVTGYSITSSYRWNWIRKFPGNRLEWMGYINSAGISNYNPSLKRRISITRDTSKNQFFLQVNSVTTEDAATYYCARSDNMGTTPFTYWGQGTLVTVSSASTKGPSVFPLAPSSKSTSGGTAALGCLVKDYFPEPVTVSWNSGALTSGVHTFPAVLQSSGLYSLSSVVTVPSSSLGTQTYICNVNHKPSNTKVDKKV[sequence of human IgG1 Fc with changes not given]
light: DIVMTQGTLPNPVPSGESVSITCRSSKSLLYSDGKTYLNWYLQRPGQSPQLLIYWMSTRASGVSDRFSGSGSGTDFTLKISGVEAEDVGIYYCQQGLEFPTFGGGTKLELKRTVAAPSVFIFPPSDEQLKSGTASVVCLLNNFYPREAKVQWKVDNALQSGNSQESVTEQDSKDSTYSLSSTLTLSKADYEKHKVYACEVTHQGLSSPVTKSFNRGEC
notes: also called Anti-mPD1-MDNA132.15 (1:1 KIH); anti-mPD1-MDNA132.15
B1: the “mouse PD-1/PD-L1 Blockade Bioassay, EC50” value in assay [1] was found to be 6 nM. Besides, the equilibrium dissociation constant (Kd) (in general, the equilibrium constant for the complex coming apart) was 87.7 nM with mouse PD-1 and 0.6 nM with human IL-13Rα2.

B2: MDNA109FEAA-Fc-MDNA132.15 (2:1:1 KIH) (Fc fusion)
chain 1: APTSSSTKKTQLQLEHLLLDLQMILNGINNYKNPKLTRMLTAKFYMPKKATELKHLQCLEEALKPLEEVLNLAQSKNFHFDPRDVVSNINVFVLELKGSETTFMCEYADETATIVEFLNRWITFCQSIISTLTGGGGSGGGGSGGGGSDKTHTCPPCPAPELLGGPSVFLFPPKPKDTLMISRTPEVTCVVVDVSHEDPEVKFNWYVDGVEVHNAKTKPREEQYASTYRVVSVLTVLHQDWLNGKEYKCKVSNKALPAPIEKTISKAKGQPREPQVYTLPPCRDELTKNQVSLWCLVKGFYPSDIAVEWESNGQPENNYKTTPPVLDSDGSFFLYSKLTVDKSRWQQGNVFSCSVMHEALHNHYTQKSLSLSPGGGGGSGGGGSGGGGSPGPVPPSTAHRELIRELVNITQNQKAPLCNGSMVWSINLTAGMYCAALESLINVSGCSAIEKTQRMLSGFCPHKVSAGQFSSLHVTGRKIEVAQFVKDLLLHLKKLFKEGQFN
chain 2: APTSSSTKKTQLQLEHLLLDLQMILNGINNYKNPKLTRMLTAKFYMPKKATELKHLQCLEEALKPLEEVLNLAQSKNFHFDPRDVVSNINVFVLELKGSETTFMCEYADETATIVEFLNRWITFCQSIISTLTGGGGSGGGGSGGGGS[sequence of human IgG1 Fc with changes not given]
notes: also called MDNA109FEAA^C125-Fc-MDNA132^L39/Q111/R15 (2:1:1 KIH); BiSKIT with MDNA109FEAA
On to B2, for which the “Jurkat IL2Rβγ bioassay (luciferase), EC50” value in assay [2] is 0.12 nM. The Kd is 13 nM with human IL-2R beta (CD122) and 0.6 nM in the assay with human IL-13Rα2. Further, the binding result in the assay with human IL-2R alpha (CD25) was “no binding (tested: 800 nM)”.

B3: MDNA109FEAA-Fc-MDNA413 (2:1:2) (Fc fusion)
chain: APTSSSTKKTQLQLEHLLLDLQMILNGINNYKNPKLTRMLTAKFYMPKKATELKHLQCLEEALKPLEEVLNLAQSKNFHFDPRDVVSNINVFVLELKGSETTFMCEYADETATIVEFLNRWITFCQSIISTLTGGGGSGGGGSGGGGS[sequence of human IgG1 Fc with changes not given]GGGSGGGGSGGGGSPGPVPPSTAVRALIEELINITQNQKAPLCNGSMVWSINRTAGMYCAALESLINVSGCSAIEKTQDMLSGFCPHKVSAGQFSSLHVRSSKIEVAQFVKDLLFHLRTLFREGQFN
notes: also called MDNA109FEAA^C125-Fc-MDNA413^R39/Q111 (2:1:2)
B3: the “CTLL-2 cell proliferation, EC50” value in the assay with CD25 on CTLL-2 cells is 0.053 nM. Besides, in the assay with human IL-13Rα1, the binding result is recorded as “binds”.
